Assay results from PMC4336329 (PLoS ONE, 2015).
Among all 310,000 compounds or so, about 14,000 (4.5%) showed an effect of 50% or more. Effects have a minus sign here. Some of the results follow.

Each compound was assayed against human ether-à-go-go-related gene (hERG) potassium channel (human, UniProt Q12809) (assay: primary screen, population patch clamp on CHO cells stably expressing hERG).
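Note: peak tail current of the secondary pulse compared with the same well before compound.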

Chain of human ether-à-go-go-related gene (hERG) potassium channel (Q12809 whole entry, looked up): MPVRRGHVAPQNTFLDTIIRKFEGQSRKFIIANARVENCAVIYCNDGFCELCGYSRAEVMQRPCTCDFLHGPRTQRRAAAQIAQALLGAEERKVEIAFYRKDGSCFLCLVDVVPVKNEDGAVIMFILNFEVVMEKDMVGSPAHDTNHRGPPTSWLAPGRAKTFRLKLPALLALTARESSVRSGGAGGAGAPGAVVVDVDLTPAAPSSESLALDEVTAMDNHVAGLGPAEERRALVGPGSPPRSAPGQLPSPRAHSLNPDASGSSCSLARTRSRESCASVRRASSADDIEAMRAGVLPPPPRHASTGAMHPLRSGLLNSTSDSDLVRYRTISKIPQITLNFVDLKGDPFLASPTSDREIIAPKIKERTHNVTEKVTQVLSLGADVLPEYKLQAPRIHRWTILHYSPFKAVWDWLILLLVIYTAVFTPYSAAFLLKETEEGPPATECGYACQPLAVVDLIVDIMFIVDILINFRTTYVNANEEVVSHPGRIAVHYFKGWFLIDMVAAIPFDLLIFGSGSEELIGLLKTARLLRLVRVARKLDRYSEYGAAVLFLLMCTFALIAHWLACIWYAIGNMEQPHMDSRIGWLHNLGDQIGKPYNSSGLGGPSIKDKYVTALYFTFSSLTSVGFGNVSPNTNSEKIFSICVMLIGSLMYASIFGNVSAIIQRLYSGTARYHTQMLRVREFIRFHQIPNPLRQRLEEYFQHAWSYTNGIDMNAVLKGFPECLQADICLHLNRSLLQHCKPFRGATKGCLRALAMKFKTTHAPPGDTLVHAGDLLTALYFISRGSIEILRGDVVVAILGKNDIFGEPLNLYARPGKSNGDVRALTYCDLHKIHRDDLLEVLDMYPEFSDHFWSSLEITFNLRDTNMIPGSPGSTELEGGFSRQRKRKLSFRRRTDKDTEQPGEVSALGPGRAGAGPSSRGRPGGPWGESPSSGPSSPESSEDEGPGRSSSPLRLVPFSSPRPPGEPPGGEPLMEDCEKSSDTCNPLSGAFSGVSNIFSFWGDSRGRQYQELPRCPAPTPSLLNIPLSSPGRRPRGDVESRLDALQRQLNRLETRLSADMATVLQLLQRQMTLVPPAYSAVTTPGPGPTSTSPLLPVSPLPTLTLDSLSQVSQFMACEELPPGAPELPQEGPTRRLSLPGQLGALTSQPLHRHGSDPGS

| SMILES | hERG current change (%, negative = inhibition) at 10uM [%] |
| --- | --- |
| COc1ccc(N2CCN(c3ccc(Cl)nn3)CC2)cc1 | -19.2 |
| O=C(N/N=C/c1ccc(-c2ccc([N+](=O)[O-])cc2)o1)[C@H]1C[C@@H]1c1ccccc1 | 7.07 |
| CC(=O)Nc1cc(-c2nn3c(C)nnc3s2)ccc1C | 15.7 |
| COC(=O)Cc1c(O)ccn(Cc2ccc(OC)c(OC)c2)c1=O | 0.213 |
| COc1ccc(CCNC2CCN(C)CC2)cc1OC | 3.52 |
| Cc1ccc(NC(=O)CCC(=O)N2CCC(C)CC2)c([N+](=O)[O-])c1 | -18.3 |
| CN(C)S(=O)(=O)c1cccc(NC(=O)COC(=O)/C=C/c2ccc3c(c2)OCO3)c1 | 16.2 |
| COc1ccc(OCC(=O)Nc2ccc(N3CCOCC3)cc2)cc1 | -5.35 |
| Cc1ccc2c(CC(=O)NC3CCCc4ccccc43)coc2c1 (stereo not shown) | 10.7 |
| CCOc1ccc(/C=N/n2c(C)nc3ccccc3c2=O)cc1 | 22.3 |
| Cc1cc(O)c(C(C)C)cc1NC(=O)c1cccc(Cl)c1 | -13.4 |
| Cc1cc(C(=O)Nn2cnc3ccccc3c2=O)ccc1[N+](=O)[O-] | 22.9 |
| O=C(CCN1CCCCO1)N1CCCC(Nc2ccc(F)cc2)C1 (stereo not shown) | 12.7 |
| COC(=O)C(C)(C)ONC(=O)Nc1ccc(Br)cc1 | 11.9 |
| N=C1C(c2nc3ccccc3[nH]2)=C(O)CN1c1ccccc1 | 7.61 |
| O=C(Nc1ccc(F)cc1)c1ccc(=O)[nH]n1 | 19.8 |
| CCN1CCCC1CN(Cc1cc2c(C)cc(C)cc2[nH]c1=O)C(=O)NC1CCCCC1 (stereo not shown) | -76 |
| Fc1ccc(CNc2ncnc3c2cnn3-c2ccccc2)cc1 | -28.8 |
| CCN(CC)CCCN(Cc1cc2cc3c(cc2[nH]c1=O)OCO3)C(=S)Nc1ccccc1OC | -10.5 |
| Cc1ccc(C2CC(=O)Nc3c2ccc2ccccc32)cc1[N+](=O)[O-] (stereo not shown) | 6.65 |
| Cc1ccc(NC(=O)/C(=C/c2cccs2)NC(=O)c2ccco2)cc1 | 6.71 |
| Cn1c(=O)c2c(ncn2CC(O)CNc2ccc(Cl)cc2)n(C)c1=O (stereo not shown) | -15.9 |
| CC1CCc2onc(C(=O)O)c2C1 (stereo not shown) | 16.4 |
| COc1c(N2CCN(C(=S)Nc3ccc(F)cc3)C(C)C2)c(F)cc2c(=O)c(C(=O)O)cn(C3CC3)c12 (stereo not shown) | -3.93 |
| CN1CCN(C(=O)c2ccc3c(c2)NC(=O)C(N2CCOCC2)S3)CC1 (stereo not shown) | 3.85 |
